# Experimental data as given in the supplement of paper PMC7826260.
# Some of the results follow. Viral Rep nickase domains cut single-stranded DNA in vitro at 3 µM enzyme and 37 °C for 1 h; the strands have 90 letters, of which the middle is given. The score is log2 (uncut reads / reads without enzyme); uncut sequences lie near 0, cut ones below; no hit call is given. Counts are relative to all reads; uncut strands gain when others are lost, and binding without cutting may add a little.
# How the values were obtained:
# Experiment in all cases: uncleaved DNA left, log2 of reads against the no-enzyme library (log2 ratio); higher = less cleavage (more negative = more Rep cleavage of the k-mer); sequences stand for … in CTCGTCCG…ACCGGAGA
# [1] = system: T1, Rep nickase domain of Muscovy duck circovirus
# T1 sequence (protein, residues 1-111, tag omitted): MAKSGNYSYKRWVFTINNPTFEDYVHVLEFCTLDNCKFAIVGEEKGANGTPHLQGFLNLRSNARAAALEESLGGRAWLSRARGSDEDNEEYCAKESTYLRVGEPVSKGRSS
# Procedure: (§1)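 A pool of 90-nt single-stranded DNAs with seven random bases just before the constant AC of the nick site (name = the seven bases) was cut by 3 µM recombinant His6-SUMO-tagged Rep nickase domain (300 nM DNA, 50 mM HEPES pH 8.0, 50 mM NaCl, 1 mM MnCl2, 1 h, 37 °C, three replicates). Uncut DNA was amplified and sequenced.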
# [2] = system: T2, Rep nickase domain of banana bunchy top virus
# T2 sequence (protein, residues 1-94, tag omitted): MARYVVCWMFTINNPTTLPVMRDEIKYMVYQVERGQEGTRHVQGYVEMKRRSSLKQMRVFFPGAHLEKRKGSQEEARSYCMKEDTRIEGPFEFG
# Procedure: as §1
# [3] = system: T3, Rep nickase domain of cabbage leaf curl virus
# T3 sequence (protein, residues 1-116, tag omitted): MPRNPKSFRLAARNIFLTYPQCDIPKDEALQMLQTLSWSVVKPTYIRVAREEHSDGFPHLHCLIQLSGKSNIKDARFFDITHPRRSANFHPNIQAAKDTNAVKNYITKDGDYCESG
# Procedure: as §1
# [4] = system: T4, Rep nickase domain of chickpea chlorotic dwarf virus
# T4 sequence (protein, residues 1-124, tag omitted): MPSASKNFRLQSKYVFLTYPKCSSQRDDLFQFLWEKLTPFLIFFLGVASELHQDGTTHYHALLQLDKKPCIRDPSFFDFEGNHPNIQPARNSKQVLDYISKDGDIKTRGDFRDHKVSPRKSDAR
# Procedure: as §1
# [5] = system: T5, Rep nickase domain of faba bean necrotic yellows virus
# T5 sequence (protein, residues 1-98, tag omitted): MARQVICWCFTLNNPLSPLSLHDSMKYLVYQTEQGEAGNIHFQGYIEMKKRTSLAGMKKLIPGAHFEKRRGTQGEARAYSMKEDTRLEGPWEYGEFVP
# Procedure: as §1
# [6] = system: T6, Rep nickase domain of maize striate mosaic virus
# T6 sequence (protein, residues 1-117, tag omitted): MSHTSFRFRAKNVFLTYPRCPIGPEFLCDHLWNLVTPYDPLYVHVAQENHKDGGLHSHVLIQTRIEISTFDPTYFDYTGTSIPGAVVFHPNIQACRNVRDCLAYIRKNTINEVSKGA
# Procedure: as §1
# [7] = system: T7, Rep nickase domain of porcine circovirus 2
# T7 sequence (protein, residues 2-116, tag omitted): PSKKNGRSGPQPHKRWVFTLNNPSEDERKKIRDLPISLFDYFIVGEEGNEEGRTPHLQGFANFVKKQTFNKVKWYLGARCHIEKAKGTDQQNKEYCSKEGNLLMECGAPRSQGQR
# Procedure: as §1
# [8] = system: T8, Rep nickase domain of tomato golden mosaic virus
# T8 sequence (protein, residues 1-124, tag omitted): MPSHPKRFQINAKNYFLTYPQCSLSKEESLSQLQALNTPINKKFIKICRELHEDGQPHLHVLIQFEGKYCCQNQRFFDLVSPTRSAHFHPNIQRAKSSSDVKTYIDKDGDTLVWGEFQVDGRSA
# Procedure: as §1
# [9] = system: T9, Rep nickase domain of tomato yellow leaf curl virus
# T9 sequence (protein, residues 1-136, tag omitted): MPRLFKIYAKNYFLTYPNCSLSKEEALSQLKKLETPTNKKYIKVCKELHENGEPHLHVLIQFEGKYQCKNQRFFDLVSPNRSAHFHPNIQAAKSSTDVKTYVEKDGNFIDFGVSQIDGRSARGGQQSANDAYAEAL
# Procedure: as §1
# [10] = system: T10, Rep nickase domain of wheat dwarf virus
# T10 sequence (protein, residues 1-137, tag omitted): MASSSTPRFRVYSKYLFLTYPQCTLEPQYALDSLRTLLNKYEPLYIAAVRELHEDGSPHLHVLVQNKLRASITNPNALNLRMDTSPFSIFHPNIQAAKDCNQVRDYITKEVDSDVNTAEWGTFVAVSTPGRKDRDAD
# Procedure: as §1
Sequence,uncleaved DNA left (log2) [1],uncleaved DNA left (log2) [2],uncleaved DNA left (log2) [3],uncleaved DNA left (log2) [4],uncleaved DNA left (log2) [5],uncleaved DNA left (log2) [6],uncleaved DNA left (log2) [7],uncleaved DNA left (log2) [8],uncleaved DNA left (log2) [9],uncleaved DNA left (log2) [10]
GCTGGCA,-0.0238,0.0147,0.0346,0.518,-0.117,0.482,0.0437,0.0539,-0.0921,0.0245
AGTAATG,0.0209,0.0978,-0.14,0.503,0.114,0.928,0.15,0.223,-0.0187,0.0968
AAGTGTT,-1.42,-2.63,-0.295,-0.235,-2.46,1.55,-3.78,-0.063,-0.216,-0.173
ATCGACA,-0.079,-0.0411,-0.125,-0.104,-0.0968,0.494,-0.111,-0.00945,0.079,0.00178
ACAGTGA,-0.0256,-0.109,-0.554,-0.735,-0.0577,-1.32,0.0243,0.07,-0.102,-0.108
AACTTTC,-0.118,-0.0122,0.00423,-0.737,0.16,-0.805,-1.72,-0.0345,-0.0548,0.0485
CAGTGCA,0.0427,-0.0806,-0.598,-0.901,-0.0425,-1.12,-2.44,0.0241,0.211,-0.0682
TTGTAAG,-0.0796,-0.212,-0.965,-0.734,-0.0805,-1.34,0.0359,-0.113,-0.152,-0.199
CGTCGTG,0.0984,0.0555,-0.361,-0.271,0.0792,-0.36,0.202,0.103,0.0195,0.0691
ACGGTAG,0.0967,0.00921,-0.807,-0.547,-0.0846,-1.11,0.197,-0.00764,0.129,-0.141
AACGATC,0.199,-0.0953,0.0805,0.0313,0.0342,-0.0975,0.0908,-0.0605,-0.126,0.117
TTTAGGC,-0.0581,-0.103,0.359,0.697,-0.0483,0.64,0.0951,0.0681,-0.138,0.0485
CCCTTTA,-0.233,-0.176,-0.266,-1.51,-0.0678,-0.817,-0.26,-0.143,-0.204,-0.393
TCGGAAC,-0.00497,-0.0437,0.232,0.255,-0.00567,0.581,0.00166,-0.0395,-0.0653,-0.0218
TCATTAT,-0.714,-0.0844,-0.492,-1.91,0.0831,-0.753,-1.03,0.0722,0.143,0.0161
CATACAA,0.00485,0.0411,-0.119,-1.05,0.0127,-0.789,0.00034,-0.0992,0.0344,-0.0401
ATGAGGT,-0.0481,-0.0902,0.276,1,-0.0601,1.23,0.0615,-0.0451,-0.143,-0.11
AATAACT,-0.224,-0.476,-1.15,-3.12,-0.0387,-1.27,-3.41,-0.0603,-0.0636,-0.222
AAAAAGA,0.0265,0.00591,-0.0836,-0.483,0.0561,-1.06,0.0704,0.105,0.0156,0.0359
CGATCAT,-0.0277,0.0685,0.366,0.646,0.00417,0.698,-0.192,-0.108,0.143,0.165
TATTGTC,-0.181,0.0517,-0.357,-0.798,0.134,-1.36,-0.172,-0.0201,0.185,0.0427
CAGTCGG,0.00771,0.0726,0.341,1.03,-0.0521,0.945,-0.052,0.177,-0.117,-0.0495
AGAACTC,0.073,0.000947,0.365,0.773,0.0282,0.898,0.178,0.0194,0.0215,0.229
TTTCGAC,0.0476,-0.0584,0.0677,-0.186,0.0964,-0.511,0.122,-0.0351,0.0481,-0.124
ATCGCAA,0.125,-0.00198,-0.15,-0.235,0.0917,-0.89,-0.00164,0.0773,0.115,-0.0199
GCACAGG,0.0786,0.133,0.152,0.775,0.0841,0.0435,0.139,0.12,0.0637,0.202
ACGAACC,-0.00184,0.104,-0.0439,-0.212,0.0686,-0.175,-0.0836,0.0592,-0.0925,-0.0158
TGTTTAA,-0.00481,-0.0105,0.184,0.279,-0.0681,0.836,0.073,-0.00286,-0.0278,-0.114
CACCAGT,-0.181,-0.0785,-0.541,-1.93,0.0376,-1.05,-0.581,-0.0772,-0.0775,-0.119
TCTTATT,-3.37,-2.93,-1.08,-2.84,-0.225,-0.7,-3.98,-0.307,-0.104,-1.23
